Measurements as given in PubChem BioAssay AID686978 (National Center for Advancing Translational Sciences (NCATS), 2013).
“And” between values parts separate entries of the source, which are not always exact repeats. Equal values may be shown once. Hit rate of the full screen: of about 420,000 compounds, about 64,000 (15%) were called active. The shares of active, inactive and inconclusive entries below differ from those in the screen. Calls come from the whole dose curve; as a rule, active = well fitted inhibition curve with a large enough effect; inconclusive = small, poorly fitted or top-dose-only effect; inactive = flat fitted curve, though single readings scatter. No potency is given beside an inconclusive call; the fits are too rough.

Assay: qHTS for Inhibitors of human tyrosyl-DNA phosphodiesterase 1 (TDP1): qHTS in cells in absence of CPT; note: nearly all actives have a fitted effect of over 55% in size
Details: DT40 Tdp1-/- hTDP1 cells, no CPT, ATP luminescence, 48 h; activity change, negative = growth inhibition: at 46.2 µM (top of the series)
From the text: Human tyrosyl-DNA phosphodiesterase 1 (TDP1) is a novel repair gene, and we propose to use it as a new target for anticancer drug development. TDP1 is not an essential protein, but under treatment with topoisomerase I poison (camptothecin: CPT), TDP1 works as a critical factor for cell survival. To directly identify novel TDP1 inhibitors active in a cellular environment, we have knocked-out the Tdp1 gene in chicken DT40 cells (Tdp1-/-) and generated a complemented counterpart cells that contains a stable transfection of the human TDP1 gene (Tdp1-/-;hTDP1 cells). For the primary screen, Tdp1-/-;hTDP1 cells will be exposed to small molecules in the presence or absence of CPT, and their growth kinetics will be evaluated after 48 hours by measuring ATP activity. […] The hit compounds will then be evaluated in the presence or absence of CPT using Tdp1-/- cells. […] In tertiary assays, biochemical gel-based assays will be used to assess whether the hit compounds specifically target TDP1.
To this end, we have screened this cell line against the MLSMR in two primary screens. In one screen we add CPT and in the other we screen in the absence of CPT; this AID represents the screen where CPT was absent.
NIH Chemical Genomics Center [NCGC]
NIH Molecular Libraries Probe Centers Network [MLPCN]
Assay Submitter (PI): Yves Pommier, NCI
DT40-hTDP1 cells without 20 nM Camptothecin (add 20 microL of DMSO in 1 L of cell culture medium) were dispensed at 400 cells/5microL/well in tissue culture treated 1536-well white wall/solid bottom assay plates (Greiner Bio-One North America, NC, U.S.A.) using a Multidrop Combi 8 channel dispenser (Thermo Fisher, Waltham, MA, USA). 23 nL compounds and controls were transferred using the pin tool (Kalypsys, San Diego, CA, USA) to the assay plates. The assay plates were then incubated at 37 masculineC for a minimum 48 hr. Three microL of Cell Titer Glo solution was added to the plates and incubated at RT in dark for 30 min. Luminescence was read using ViewLux (Perkin Elmer) with 1 sec exposure slow speed, high gain and 2x binning.
% is set by controls: 0 for no effect and ±100 for the full control effect; potency is the fitted concentration of half-maximal effect; tags give direction and shape of the fitted curve.

Row | Structure (SMILES) | Potency | activity change, negative = growth inhibition
1 | O=C(Nc1nccs1)C1Cc2ccccc2CN1S(=O)(=O)c1ccc(F)cc1 (stereo not drawn) | active: 14.6 µM | 
2 | COc1ccc(NCc2nc3ccccc3n2CCOc2ccccc2)cc1 | inconclusive [inhibitor, single point] | 
3 | COc1cc(-c2coc3c(C(=O)NC4CCCCC4)cccc23)ccc1O | inconclusive [inhibitor, single point] | 
4 | Cc1cc(C)c2c(CN(C)Cc3ccccc3)cc(=O)oc2c1 | inconclusive [inhibitor, single point] | 
5 | C=C(CN(C)C)C(=O)c1cc(C)ccc1C | active: 1.03 µM | 
6 | O=C(Nc1ccc(F)c(Cl)c1)C1CC(=O)n2c(nc3ccccc32)N1 (stereo not drawn) | inconclusive [inhibitor, partial curve] | 
7 | O=[N+]([O-])c1ccc(OCn2cncn2)cc1 |  | inactive: -18.8%
8 | CCOc1ccc(-c2cnc3ccccc3n2)cc1 | inconclusive [inhibitor, single point] | 
9 | Cc1cnc(CNc2ncnc3ccc(-c4c(C)noc4C)cc23)cn1 | inconclusive [inhibitor, single point] | 
10 | C/C(N)=C(/C#N)C(=O)COC(=O)c1cc(-c2ccc(Br)cc2)nc2ccccc12 | active: 11.6 µM and active: 9.2 µM | 
11 | COc1cccc(C(=O)OCC(=O)NCC2CCCO2)c1 (stereo not drawn) |  | inactive: -10.7%
12 | OC(c1ccc(F)c(F)c1)c1nc(-c2cncnc2)cs1 (stereo not drawn) | inconclusive [inhibitor, single point] | 
13 | N#CCCn1cc(C(=O)Nc2ccccc2Br)c(-c2cc3ccccc3o2)n1 |  | inactive: -116%
14 | Cc1ccc(S(=O)(=O)N2CCC(C(=O)OCCOc3cccc(C)c3)CC2)cc1 |  | inactive: 1.04%
15 | CCCCOP(=O)(c1ccc(N(C)C)cc1)C(O)c1ccc(OC)c(OC)c1 (stereo not drawn) |  | inactive: -24.9%
16 | Cc1c(C(=O)N2CCC(C)CC2)c(S(=O)(=O)NCc2ccc(Br)cc2)c(C)n1C | inconclusive [inhibitor, partial curve, poor fit] | 
17 | O=c1[nH][nH]c2c1C(C1CCCCC1)OC(C1CCCCC1)C2 (stereo not drawn) | inconclusive [inhibitor, single point] | 
18 | CC(C)c1ccc(NC(=O)C2CCN(c3nc(-c4ccc(C(C)C)cc4)no3)CC2)cc1 | active: 13 µM | 
19 | COc1cc(NC(=O)c2ccccc2)c(OC)cc1NC(=O)Cc1cccs1 | inconclusive [inhibitor, single point] | 
20 | COCC#Cc1ccc2c(c1)O[C@@H](CN(C)S(=O)(=O)c1cccc(F)c1)[C@@H](C)CN([C@H](C)CO)S2(=O)=O | active: 18.4 µM | 
21 | COCc1c(Br)c(C)[nH]c(=O)c1C#N |  | inactive: -12.6%
22 | COc1cc(OC)c(NC(=O)c2cc3ccccc3cc2O)cc1Cl | inconclusive [inhibitor, single point] | 
23 | CCCc1nn2c(=O)cc(CSCC(=O)Nc3cccc(OC)c3)nc2s1 |  | inactive: 26.9%
24 | CN(C)CCN(C(=O)CN1C(=O)c2ccccc2C1=O)c1nc2cc3c(cc2s1)OCCO3 |  | inactive: 3.41%

Row | Structure (SMILES) | Potency | activity change, negative = growth inhibition
25 | CCc1ccc(C(O)c2ncc(-c3ccccc3C)[nH]2)cc1 (stereo not drawn) | inconclusive [inhibitor, single point] | 
26 | O=C(CCc1cn(Cc2ccccc2Cl)c2ccccc12)NC1CCCCC1 | active: 16.4 µM | 
27 | Cc1cccc(-c2ccc([N+](=O)[O-])cc2CN2CCN(c3ncc(Cc4ccccc4)cn3)CC2)c1 | active: 5.8 µM | 
28 | O=C(NCc1ccc(Cl)cc1)C1CCN(S(=O)(=O)c2ccc(N3CCCC3=O)cc2)CC1 | inconclusive [inhibitor, partial curve] | 
29 | Cc1ccccc1Nc1c(-c2ccc(Cl)s2)nc2c(C)cccn12 | inconclusive [inhibitor, single point] | 
30 | CC1CCCCN1S(=O)(=O)c1ccc(C(=O)Nc2ccccc2-c2nc3ccccc3[nH]2)cc1 (stereo not drawn) | active: 14.6 µM | 
31 | COc1ccc(-n2ncc(C(=O)N3CCN(c4ncccn4)CC3)c2C2CCN(C(=O)OC(C)(C)C)CC2)cc1 |  | inactive: -12.7%
32 | Cc1ccc(N2CC(C(=O)Nc3nnc(SCC(=O)Nc4nc(C)cs4)s3)CC2=O)cc1 (stereo not drawn) | inconclusive [inhibitor, partial curve] | 
33 | CSc1ncccc1C(=O)OCC(=O)N(CC(C)C)c1c(N)n(Cc2ccccc2)c(=O)[nH]c1=O |  | inactive: 4.69%
34 | COc1ccc(CNC(=O)c2cc(-c3cccc(Cl)c3)on2)cc1 |  | inactive: -29.2%
35 | COc1cccc(C(C)(O)c2nc(-c3cc4ccccc4o3)cs2)c1 (stereo not drawn) | active: 23.1 µM | 
36 | Cc1cccc(C(O)c2ncc(-c3ccccc3F)[nH]2)c1C (stereo not drawn) | inconclusive [inhibitor, partial curve] | 
37 | NC(=O)C1CCN(C(=O)C2CCC(=O)N(Cc3ccc(Cl)cc3)C2)CC1 (stereo not drawn) |  | inactive: -4.49%
38 | CC(C)(C)Cc1c(-c2ccc(F)cc2)nc2ccc(Cl)cn12 | active: 20.6 µM | 
39 | CCCn1c(N)c(C(=O)CSc2nc(C3CC3)n(-c3ccccc3)n2)c(=O)[nH]c1=O | inconclusive [inhibitor, partial curve] | 
40 | CCCc1cc(=O)[nH]c(SCC(=O)c2cc(C)n(C)c2C)n1 |  | inactive: -25.1%
41 | CC1CCCN(CC(=O)Nc2ccc(S(=O)(=O)N3CCCC3)cc2)C1 (stereo not drawn) | active: 13 µM | 
42 | Cc1cccc2c(=O)c(-c3ccc4c(c3)OCO4)c(NC(=O)c3ccco3)oc12 |  | inactive: -25.9%
43 | CC(C)(C)OC(=O)N1CCC(c2c(C(=O)NCCCN3CCc4ccccc4C3)cnn2-c2ccccc2)CC1 | active: 23.1 µM | 
44 | COc1ccc(-c2c(C)c3cc(OC(=O)N4CCOCC4)ccc3oc2=O)cc1 | inconclusive [inhibitor, single point] | 
45 | CC(C)(C)C1CCc2c(sc(NC(=O)C3CCCO3)c2C(N)=O)C1 (stereo not drawn) | active: 18.4 µM | 
46 | COc1ccc(OC)c(NC(=O)CCc2c(C)nn(-c3ccc(N4CCCC4)nn3)c2C)c1 | active: 14.6 µM | 
47 | COCCNC(=S)N1CCN(c2nc(-c3ccc(F)cc3)cs2)CC1 | inconclusive [inhibitor, partial curve] | 
48 | CC(C)[C@H](NC(=O)OC(C)(C)C)c1cc(C(=O)NCCc2c[nH]c3ccccc23)c(N)s1 | active: 20.6 µM | 
